Drawing on the supplement of paper PMC4967469, this text covers AUC and IC50 for ten cell lines.

pIC50: −log10 of the molar value. Lines with a small IC50 respond at low doses; a limit (>, <) means that the fit lies beyond the doses tested. The AUC spans the tested range (256-fold, ending at the top dose) of the same fit; the more sensitive the line, the further below 1. For some of these results: Any top dose called inferred is not printed in the source and was worked back from the curve model. Bounds are passed on as bounds.

What all share (experiment): Viability of human cancer cell lines after 72 h of drug (GDSC screen)
Compound in one test: C=CCNC1=C2C[C@@H](C)C[C@H](OC)[C@H](O)[C@@H](C)/C=C(\C)[C@H](OC(N)=O)[C@@H](OC)/C=C\C=C(/C)C(=O)NC(=CC1=O)C2=O [17-AAG]
Conditions: top dose 1 µM. On the procedure:
(§1)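 Human cancer cell lines in 384-well plates, medium with 10% serum, drug for 72 h over a 256-fold dose range (nine 2-fold or five 4-fold steps up to the top dose). Adherent lines were fixed and stained with the nucleic acid dye Syto60, suspension lines read with resazurin; signal relative to control wells, capped at 0 and 100%. One two-parameter sigmoid per drug and line, fitted in a mixed model over all curves with the slope shared within a line.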

Compound in the next test: CCc1cc(-c2n[nH]c(C)c2-c2ccc3c(c2)OCCO3)c(O)cc1O [CCT018159]
Conditions: top dose 10 µM; top dose inferred. The protocol: as §1

Compound in a further test: CN(C)Cc1cccc(N=C(c2ccccc2)c2c(O)[nH]c3cc(C(=O)N(C)C)ccc23)c1 [BIX02189]
Conditions: top dose 20 µM; top dose inferred. The protocol: as §1

Compound in a further test: COC(=O)CNC(=O)C(=O)OC [Dimethyloxalylglycine]
Conditions: top dose 4000 µM; top dose inferred. On the procedure: as §1

Compound in another test: COc1cccc2cc(-c3nc([C@H]4CC[C@H](C(=O)O)CC4)n4ncnc(N)c34)[nH]c12 [OSI-027]
Conditions: top dose 20 µM. On the procedure: as §1

Compound in another test: Cc1cnc(Nc2ccc(F)cc2Cl)nc1-c1c[nH]c(C(=O)N[C@H](CO)c2cccc(Cl)c2)c1 [VX-11e]
The settings on record: top dose 5.12 µM; top dose inferred. On the procedure:
as §1

Compound in a further test: Cc1cnc(Nc2ccc(OCCN3CCCC3)cc2)nc1Nc1cccc(S(=O)(=O)NC(C)(C)C)c1 [TG101348]
The settings on record: top dose 10.24 µM. On the procedure: as §1

Compound in a further test: O=C(c1ccc(C(=O)N2CCC(N3CCCC3)CC2)c(Nc2ccccc2)c1)N1CCC(N2CCCC2)CC1 [UNC1215]
The settings on record: top dose 1 µM; top dose inferred. The protocol: as §1

Compound in another test: CS(=O)(=O)c1ccc(C(=O)Nc2ccc(Cl)c(-c3ccccn3)c2)c(Cl)c1 [Vismodegib]
The settings on record: top dose 10 µM; top dose inferred. The protocol: as §1

“ChaGo-K-1 (non-small cell lung carcinoma, adherent)”: the AUC is 0.689 with 17-AAG; 0.927 in the test with CCT018159; 0.975 with BIX02189; 0.737 with Dimethyloxalylglycine; 0.837 with OSI-027; 0.98 with VX-11e. In addition, the AUC came out at 0.965 with TG101348 and 0.983 with UNC1215. Further, the pIC50 (commonly the negative decadic logarithm of the IC50, by convention in mol/L) in the test with 17-AAG was 6.63; in the test with CCT018159 it was under 5.00; with BIX02189 it was under 4.70; in the test with Dimethyloxalylglycine, 2.87; with OSI-027, 4.78; in the test with VX-11e, under 5.29. Besides, the negative-log IC50 (pIC50) with TG101348 is under 4.99; with UNC1215, under 6.00.

OCI-LY7 (B-cell lymphoma, suspension): the figures for the AUC with 17-AAG, with CCT018159 and in the test with Vismodegib were 0.955, 0.847 and 0.971, respectively. Further, the pIC50 with 17-AAG was under 6.00; in the test with CCT018159, 5.35; with Vismodegib, under 5.00.

“KG-1 (acute myeloid leukaemia, suspension)”: the AUC turned out to be 0.99 in the test with 17-AAG; 0.924 with CCT018159; 0.603 with BIX02189; 0.333 in the test with Dimethyloxalylglycine; 0.092 with OSI-027; 0.931 in the test with VX-11e. For the same cell line, the AUC in the test with TG101348 came to 0.44; with UNC1215, 0.98. The pIC50 in the test with 17-AAG is under 6.00; with CCT018159 it was under 5.00; with BIX02189, 5.63; with Dimethyloxalylglycine, 4.04; with OSI-027 it was over 7.11; with VX-11e it was under 5.29. Also, the pIC50 in the test with TG101348 was 6.35; with UNC1215, under 6.00.

Consider HCC1806 (breast, adherent), for which the AUC was 0.626 with 17-AAG; 0.918 with CCT018159; 0.941 in the test with BIX02189; 0.78 with Dimethyloxalylglycine; 0.767 with OSI-027; 0.918 in the test with VX-11e. For the same cell line, the AUC stood at 0.887 with TG101348 and 0.988 with UNC1215. In addition, the pIC50 with 17-AAG is 6.87; with CCT018159, under 5.00; with BIX02189, under 4.70; with Dimethyloxalylglycine, 2.82; with OSI-027 it was 5.16; in the test with VX-11e it was under 5.29. Further, the pIC50 in the test with TG101348 was 5.01; with UNC1215, under 6.00.

For CAKI-1 (kidney, adherent), the AUC with CCT018159 came to 0.922; with BIX02189 it was 0.917; in the test with Dimethyloxalylglycine, 0.52; with OSI-027, 0.366; in the test with Vismodegib, 0.953; in the test with VX-11e it was 0.952. The AUC in the test with TG101348 was 0.748; with UNC1215 it was 0.966. The pIC50 in the test with CCT018159 is under 5.00; in the test with BIX02189, under 4.70; with Dimethyloxalylglycine it was 3.54; in the test with OSI-027 it was 6.35; in the test with Vismodegib, under 5.00; in the test with VX-11e it was under 5.29. In addition, the pIC50 is 5.32 in the test with TG101348 and under 6.00 in the test with UNC1215.

As to “KASUMI-1 (acute myeloid leukaemia, suspension)”, the AUC came out at 0.742 with CCT018159; 0.393 in the test with Dimethyloxalylglycine; 0.125 in the test with OSI-027; 0.956 in the test with Vismodegib; 0.276 with TG101348; 0.938 with UNC1215. Moreover, the pIC50 with CCT018159 is 5.51; with Dimethyloxalylglycine it was 3.90; with OSI-027 it was 7.11; with Vismodegib, under 5.00; in the test with TG101348, 6.83; with UNC1215, under 6.00.

Consider U-266 (myeloma, semi-adherent), for which, in the test with Vismodegib, the AUC is 0.948 and the pIC50 was under 5.00. In the test with UNC1215, the AUC is 0.974 and the pIC50 is under 6.00.

With A431 (skin, adherent), the AUC with 17-AAG was found to be 0.561; with CCT018159, 0.93; in the test with BIX02189, 0.947; with Dimethyloxalylglycine, 0.379; with OSI-027, 0.231; with VX-11e it was 0.876. Besides, the AUC came out at 0.877 with TG101348 and 0.987 with UNC1215. Also, the pIC50 in the test with 17-AAG is 7.04; in the test with CCT018159, under 5.00; with BIX02189, under 4.70; with Dimethyloxalylglycine it was 3.93; with OSI-027, 6.67; with VX-11e, 5.33. The figures for the pIC50 in the test with TG101348 and with UNC1215 were 5.02 and under 6.00, respectively.

In the case of MDA-MB-436 (breast, adherent), the AUC with 17-AAG was 0.624; in the test with CCT018159, 0.974; with BIX02189, 0.97; with Dimethyloxalylglycine, 0.699; with OSI-027, 0.948; with VX-11e, 0.983. The AUC was found to be 0.984 with TG101348 and 0.978 in the test with UNC1215. Also, the negative-log IC50 (pIC50) is 6.82 with 17-AAG; under 5.00 with CCT018159; under 4.70 in the test with BIX02189; 2.97 with Dimethyloxalylglycine; under 4.70 with OSI-027; under 5.29 in the test with VX-11e. Also, the pIC50 was under 4.99 with TG101348 and under 6.00 with UNC1215.

Turning to “NCI-H1105 (small cell lung carcinoma, suspension)”, the values for the AUC in the test with 17-AAG, with Vismodegib and in the test with UNC1215 were 0.993, 0.989 and 0.992, respectively. Also, the pIC50 with 17-AAG is under 6.00; with Vismodegib, under 5.00; with UNC1215, under 6.00.
